From the supplement of paper PMC10441789 come the findings set out here.

Some of the results follow. Antibody binding of pooled human sera (four to six donors per pool; dilution not stated) to peptides of the Trypanosoma cruzi antigen TSSA on microarrays. Quantile-normalised fluorescence in arbitrary units, mean of duplicate arrays; higher = more binding. No active / inactive call. The uninfected pools are read here as the healthy donors of the same country. The strongest signals lie near the top of the scale (about 60,000).

For the assay, the system named is pooled sera of chronic Chagas disease patients, Argentina. The assay can be described thus: antibody binding signal (normalised fluorescence) (arbitrary fluorescence units); higher = stronger serum antibody binding to peptide. The protocol: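 Microarray of 15-residue peptides over residues 30-55 of Trypanosoma cruzi TSSAII, each with 1 to 10 substitutions at naturally variable positions, probed with one serum pool per country.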
Consider SGTENKTAAGEAPSQ, for which the antibody binding signal was 27700.

As for TENKPATGGAPSPPG, the antibody binding signal was 43400.

Take TENKAAAGGAPSPSG: the antibody binding signal was found to be 38500.

SSTPPSGTENKTAAG came in with an antibody binding signal of 57200.

SGKEKKAATGETPSP gave an antibody binding signal of 3850.

The sequence KEKKTAAGGTPSPPG returned an antibody binding signal of 194.

In turn, TENKTAAGEAPSQSG had an antibody binding signal of 17000.

KDKKPAAGEAPSPPG registered an antibody binding signal of 212.

Sequence TDKKTATGGAPSQPG showed an antibody binding signal of 1340.

Regarding GTDKKTATGETPSPP, the antibody binding signal stood at 365.

In the case of KDKKAAAGGTPSQSG, the antibody binding signal was found to be 187.

Regarding PSGKENKTATGGTPS, the antibody binding signal came out at 7140.

In the case of TENKPAAGGAPSPPG, the antibody binding signal is 43100.

For DKKAATGEAPSPPGA, the antibody binding signal came out at 21300.

GTDNKPATGGTPSPS: the antibody binding signal came to 2360.

In the case of EKKPAAGGTPSPSGA, the antibody binding signal was determined as 546.

With KPAAGGAPSQPGASS, the antibody binding signal is 197.

The sequence SGTEKKAATGETPSP came in with an antibody binding signal of 1490.

Sequence KEKKAATGGTPSQPG came in with an antibody binding signal of 336.

Turning to TDNKTAAGGTPSQPG, the antibody binding signal came to 1160.

On to TENKPAAGEAPSQPG, for which the antibody binding signal came to 44600.

Consider GKDNKPATGGTPSQP, for which the antibody binding signal stood at 643.

In turn, STPPSGTDKKPATGG came in with an antibody binding signal of 43000.

The sequence KKPAAGGAPSPSGAS displayed an antibody binding signal of 170.

SGTEKKPAAGGAPSP: the antibody binding signal was determined as 3130.

As for SGTEKKAATGGAPSQ, the antibody binding signal is 4190.

Sequence PSGTENKPAAGGAPS registered an antibody binding signal of 53300.

GTEKKTAAGETPSPS displayed an antibody binding signal of 348.

In turn, NKPAAGGTPSPPGAS returned an antibody binding signal of 246.

As to STPPSGKDKKPAAGG, the antibody binding signal is 36500.

In the case of GKENKTAAGEAPSPP, the antibody binding signal was determined as 3260.

The sequence GKENKAAAGETPSPP displayed an antibody binding signal of 4640.

In the case of GTDNKPAAGGTPSPP, the antibody binding signal came to 2050.

The sequence TDNKTAAGETPSPSG yielded an antibody binding signal of 268.

EKKAATGEAPSQSGA came in with an antibody binding signal of 21500.

GTDNKTATGEAPSPS yielded an antibody binding signal of 13600.

Sequence KPATGGAPSPPGASS came in with an antibody binding signal of 869.

In the case of GKEKKTATGGTPSPP, the antibody binding signal was 3780.

Turning to DNKTAAGETPSPSGA, the antibody binding signal came to 333.

GKEKKTAAGEAPSQP: the antibody binding signal was 1980.
